From the supplement of paper PMC8728848
The list shows a part of the results.

What was measured:
Assay in all cases: glycan array binding signal (z-score within array); higher = stronger binding
Details in all cases: glycan notation: IUPAC condensed, linker removed
[1] = target: Fuc(a1-2)Gal
In short: (§1)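 Arrays were curated from the Consortium for Functional Glycomics database, 3228 in total, and kept only where the protein sequence was available. Binding is expressed as a within-array Z-score. This score was averaged across arrays of the same protein sequence at different concentrations or buffers and across linkers, and negative values can be read as non-binding.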

[2] = target: Fuc(a1-2)Gal(b1-3)GalNAc
In short: as §1

[3] = target: Fuc(a1-2)Gal(b1-3)GalNAc(b1-3)Gal
In short: as §1

[4] = target: Fuc(a1-2)Gal(b1-3)GalNAc(b1-3)Gal(a1-4)Gal(b1-4)Glc
In short: as §1

[5] = target: Fuc(a1-2)Gal(b1-3)GalNAc(b1-4)[Neu5Ac(a2-3)]Gal(b1-4)Glc
In short: as §1

[6] = target: Fuc(a1-2)Gal(b1-3)GlcNAc
In short: as §1

[7] = target: Fuc(a1-2)Gal(b1-3)[Fuc(a1-4)]GlcNAc
In short: as §1

[8] = target: Fuc(a1-2)Gal(b1-4)Glc
In short: as §1

[9] = target: Fuc(a1-2)Gal(b1-4)GlcNAc
In short: as §1

[10] = target: Fuc(a1-2)Gal(b1-4)GlcNAc(b1-3)Gal(b1-4)GlcNAc
In short: as §1

[11] = target: Fuc(a1-2)Gal(b1-4)GlcNAc(b1-3)Gal(b1-4)GlcNAc(b1-3)Gal(b1-4)GlcNAc
In short: as §1

[12] = target: Fuc(a1-2)Gal(b1-4)[Fuc(a1-3)]GlcNAc
In short: as §1

[13] = target: Fuc(a1-2)GlcNAc
In short: as §1

[14] = target: Fuc(a1-2)[Gal(a1-3)]Gal
In short: as §1

[15] = target: Fuc(a1-2)[Gal(a1-3)]Gal(b1-4)GlcNAc
In short: as §1

[16] = target: Fuc(a1-2)[Gal(a1-4)]Gal(b1-4)GlcNAc
In short: as §1

[17] = target: Fuc(a1-2)[GalNAc(a1-3)]Gal
In short: as §1

[18] = target: Fuc(a1-2)[GalNAc(a1-3)]Gal(b1-4)GlcNAc
In short: as §1

[19] = target: Fuc(a1-2)[GalNAc(a1-4)]Gal(b1-4)GlcNAc
In short: as §1

[20] = target: Fuc(a1-2)[GalNAc(b1-3)]Gal
In short: as §1

[21] = target: Fuc(a1-3)GlcNAc
In short: as §1

[22] = target: Fuc(a1-3)[Gal(b1-4)]GlcNAc
In short: as §1

[23] = target: Fuc(a1-3)[Gal(b1-4)]GlcNAc(b1-3)Gal(b1-4)[Fuc(a1-3)]GlcNAc
In short: as §1

[24] = target: Fuc(a1-3)[Gal(b1-4)]GlcNAc(b1-3)Gal(b1-4)[Fuc(a1-3)]GlcNAc(b1-3)Gal(b1-4)[Fuc(a1-3)]GlcNAc
In short: as §1

[25] = target: Fuc(a1-3)[Gal3S(b1-4)]GlcNAc
In short: as §1

[26] = target: Fuc(b1-3)GlcNAc
In short: as §1

[27] = target: Gal(a1-2)Gal
In short: as §1

[28] = target: Gal(a1-3)Gal
In short: as §1

[29] = target: Gal(a1-3)Gal(b1-4)Glc
In short: as §1

[30] = target: Gal(a1-3)Gal(b1-4)GlcNAc
In short: as §1

[31] = target: Gal(a1-3)Gal(b1-4)[Fuc(a1-3)]GlcNAc
In short: as §1

[32] = target: Gal(a1-3)GalNAc
In short: as §1

[33] = target: Gal(a1-3)[Gal(a1-4)]Gal(b1-4)GlcNAc
In short: as §1

[34] = target: Gal(a1-4)Gal(b1-4)Glc
In short: as §1

[35] = target: Gal(a1-4)Gal(b1-4)GlcNAc
In short: as §1

[36] = target: Gal(a1-4)GlcNAc
In short: as §1

[37] = target: Gal(a1-6)Glc
In short: as §1

[38] = target: Gal(b1-2)Gal
In short: as §1

[39] = target: Gal(b1-3)Gal
In short: as §1

[40] = target: Gal(b1-3)GalNAc
In short: as §1

[41] = target: Gal(b1-3)GalNAc(b1-4)Gal(b1-4)Glc
In short: as §1

[42] = target: Gal(b1-3)GalNAc(b1-4)[Neu5Ac(a2-3)]Gal(b1-4)Glc
In short: as §1

[43] = target: Gal(b1-3)GlcNAc
In short: as §1

[44] = target: Gal(b1-3)GlcNAc(b1-3)Gal(b1-4)Glc
In short: as §1

[45] = target: Gal(b1-3)[Fuc(a1-4)]GlcNAc
In short: as §1

[46] = target: Gal(b1-3)[GlcNAc(b1-6)]GalNAc
In short: as §1

[47] = target: Gal(b1-3)[Neu5Ac(a2-6)]GalNAc
In short: as §1

[48] = target: Gal(b1-3)[Neu5Ac(a2-6)]GlcNAc(b1-4)Gal(b1-4)Glc
In short: as §1

[49] = target: Gal(b1-3)[Neu5Ac(b2-6)]GalNAc
In short: as §1

[50] = target: Gal(b1-4)GalNAc(a1-3)[Fuc(a1-2)]Gal(b1-4)GlcNAc
In short: as §1

[51] = target: Gal(b1-4)Glc
In short: as §1

[52] = target: Gal(b1-4)Glc6S
In short: as §1

[53] = target: Gal(b1-4)GlcNAc
In short: as §1

[54] = target: Gal(b1-4)GlcNAc(b1-3)Gal(b1-4)Glc
In short: as §1

[55] = target: Gal(b1-4)GlcNAc(b1-3)Gal(b1-4)GlcNAc
In short: as §1

[56] = target: Gal(b1-4)GlcNAc(b1-3)Gal(b1-4)GlcNAc(b1-3)Gal(b1-4)GlcNAc
In short: as §1

[57] = target: Gal(b1-4)GlcNAc(b1-3)Gal(b1-4)[Fuc(a1-3)]GlcNAc(b1-3)Gal(b1-4)[Fuc(a1-3)]GlcNAc
In short: as §1

[58] = target: Gal(b1-4)GlcNAc(b1-3)GalNAc
In short: as §1

[59] = target: Gal(b1-4)GlcNAc(b1-3)[Gal(b1-4)GlcNAc(b1-6)]GalNAc
In short: as §1

[60] = target: Gal(b1-4)GlcNAc(b1-6)GalNAc
In short: as §1

B1: IRP60A (Homo sapiens), Q9UGN4 (protein)
chain: MWLPWALLLLWVPGCFALSKCRTVAGPVGGSLSVQCPYEKEHRTLNKYWCRPPQIFLCDKIVETKGSAGKRNGRVSIRDSPANLSFTVTLENLTEEDAGTYWCGVDTPWLRDFHDPVVEVEVSVFPASTSMTPASITAAKTSTITTAFPPVSSTTLFAVGATHSASIQEETEEVVNSQLPLLLSLLALLLLLLVGASLLAWRMFQKWIKAGDHSELSQNPKQAATQSELHYANLELLMWPLQEKPAPPREVEVEYSTVASPREELHYASVVFDSNTNRIAAQRPREEEPDSDYSVIRKT
Q: For B1, which “glycan array binding signal (z-score)” value [1] is on record?
A: The value was 0.125.

Q: And the “glycan array binding signal (z-score)” value [2]?
A: Its value is -0.123.

Q: And the “glycan array binding signal (z-score)” value [3]?
A: Its value is -0.387.

Q: And the “glycan array binding signal (z-score)” value [4]?
A: Its value is 0.012.

Q: What about the “glycan array binding signal (z-score)” value [5] of the same binder?
A: The value was -0.364.

Q: What about the “glycan array binding signal (z-score)” value [6] of the same binder?
A: The value was -0.155.

Q: And the “glycan array binding signal (z-score)” value [7]?
A: The value was -0.215.

Q: And the “glycan array binding signal (z-score)” value [8]?
A: The value was -0.053.

Q: What about the “glycan array binding signal (z-score)” value [9] of the same binder?
A: The value was 0.348.

Q: And the “glycan array binding signal (z-score)” value [10]?
A: Its value is -0.394.

Q: And the “glycan array binding signal (z-score)” value [11]?
A: The value was -0.378.

Q: What about the “glycan array binding signal (z-score)” value [12] of the same binder?
A: The value was -0.173.

Q: And the “glycan array binding signal (z-score)” value [13]?
A: The value was 0.11.

Q: What about the “glycan array binding signal (z-score)” value [14] of the same binder?
A: Its value is -0.301.

Q: What about the “glycan array binding signal (z-score)” value [15] of the same binder?
A: Its value is -0.266.

Q: And the “glycan array binding signal (z-score)” value [16]?
A: Its value is -0.153.

Q: And the “glycan array binding signal (z-score)” value [17]?
A: Its value is -0.282.

Q: And the “glycan array binding signal (z-score)” value [18]?
A: Its value is 0.381.

Q: What about the “glycan array binding signal (z-score)” value [19] of the same binder?
A: The value was -0.223.

Q: What about the “glycan array binding signal (z-score)” value [20] of the same binder?
A: The value was -0.31.

Q: And the “glycan array binding signal (z-score)” value [21]?
A: Its value is 0.257.

Q: What about the “glycan array binding signal (z-score)” value [22] of the same binder?
A: Its value is -0.209.

Q: What about the “glycan array binding signal (z-score)” value [23] of the same binder?
A: Its value is -0.341.

Q: And the “glycan array binding signal (z-score)” value [24]?
A: Its value is -0.448.

Q: And the “glycan array binding signal (z-score)” value [25]?
A: Its value is -0.025.

Q: What about the “glycan array binding signal (z-score)” value [26] of the same binder?
A: The value was 1.57.

Q: And the “glycan array binding signal (z-score)” value [27]?
A: The value was -0.38.

Q: What about the “glycan array binding signal (z-score)” value [28] of the same binder?
A: Its value is -0.304.

Q: And the “glycan array binding signal (z-score)” value [29]?
A: The value was -0.419.

Q: And the “glycan array binding signal (z-score)” value [30]?
A: The value was -0.257.

Q: What about the “glycan array binding signal (z-score)” value [31] of the same binder?
A: Its value is -0.104.

Q: What about the “glycan array binding signal (z-score)” value [32] of the same binder?
A: The value was 0.334.

Q: What about the “glycan array binding signal (z-score)” value [33] of the same binder?
A: The value was -0.246.

Q: And the “glycan array binding signal (z-score)” value [34]?
A: Its value is -0.339.

Q: And the “glycan array binding signal (z-score)” value [35]?
A: The value was -0.116.

Q: And the “glycan array binding signal (z-score)” value [36]?
A: Its value is 0.125.

Q: What about the “glycan array binding signal (z-score)” value [37] of the same binder?
A: The value was -0.296.

Q: And the “glycan array binding signal (z-score)” value [38]?
A: The value was -0.31.

Q: What about the “glycan array binding signal (z-score)” value [39] of the same binder?
A: Its value is -0.058.

Q: And the “glycan array binding signal (z-score)” value [40]?
A: The value was -0.193.

Q: What about the “glycan array binding signal (z-score)” value [41] of the same binder?
A: Its value is -0.487.

Q: What about the “glycan array binding signal (z-score)” value [42] of the same binder?
A: The value was -0.404.

Q: What about the “glycan array binding signal (z-score)” value [43] of the same binder?
A: The value was 0.07.

Q: What about the “glycan array binding signal (z-score)” value [44] of the same binder?
A: Its value is -0.335.

Q: What about the “glycan array binding signal (z-score)” value [45] of the same binder?
A: The value was -0.208.

Q: And the “glycan array binding signal (z-score)” value [46]?
A: The value was -0.31.

Q: And the “glycan array binding signal (z-score)” value [47]?
A: Its value is -0.296.

Q: What about the “glycan array binding signal (z-score)” value [48] of the same binder?
A: Its value is -0.419.

Q: What about the “glycan array binding signal (z-score)” value [49] of the same binder?
A: The value was -0.232.

Q: What about the “glycan array binding signal (z-score)” value [50] of the same binder?
A: The value was 0.124.

Q: And the “glycan array binding signal (z-score)” value [51]?
A: The value was -0.043.

Q: What about the “glycan array binding signal (z-score)” value [52] of the same binder?
A: The value was -0.384.

Q: And the “glycan array binding signal (z-score)” value [53]?
A: Its value is -0.097.

Q: And the “glycan array binding signal (z-score)” value [54]?
A: The value was -0.351.

Q: What about the “glycan array binding signal (z-score)” value [55] of the same binder?
A: The value was -0.308.

Q: And the “glycan array binding signal (z-score)” value [56]?
A: Its value is -0.41.

Q: What about the “glycan array binding signal (z-score)” value [57] of the same binder?
A: The value was -0.375.

Q: And the “glycan array binding signal (z-score)” value [58]?
A: The value was -0.171.

Q: What about the “glycan array binding signal (z-score)” value [59] of the same binder?
A: The value was -0.426.

Q: What about the “glycan array binding signal (z-score)” value [60] of the same binder?
A: Its value is -0.384.
